Data as given in ChEMBL document CHEMBL1201862, “PubChem BioAssay data set” (2004).

system: NCI-H322M; assay: DTP human tumour cell line panel, 48 h

| Structure (SMILES) | GI50 |
| --- | --- |
| C/C(=N\N=C(/[SeH])N1CC2CCC(CC2)C1)c1ccccn1 | active: 0.206 µM |
| Fc1ccccc1-c1cc(S)c2cc3c(cc2n1)OCO3 | inactive: 5.71 µM |
| N/C(=N\O)N/N=C/c1ccc(C(F)(F)F)cc1 | inactive: 5.43 µM |
| Cl/C(=N\c1cccc2ccccc12)N(c1ccccc1)c1ccccc1 | inactive: > 100 µM |
| O=[N+]([O-])c1ccccc1OCCOc1ccccc1[N+](=O)[O-] | inactive: > 100 µM |
| Cc1cc(O)c2c(c1)OC1(C)CCC3C(C)(C)CCCC34COC2C14 (centres undefined) | active: 0.0291 µM |
| CS(=O)(=O)Nc1ccc(Nc2c3ccccc3nc3ccccc23)cc1 | inactive: 5.86 µM |
| COC(=O)C(=O)C(C(=O)C(=O)Nc1cccc(C(C)=O)c1)c1nc2ccc([N+](=O)[O-])cc2nc1O (centres undefined) | inactive: > 100 µM |
| O=C(O)C(Oc1nc(S)nc(S)n1)(c1ccc(Cl)cc1)c1ccc(Cl)cc1 | inactive: > 100 µM |
| O=C(O)c1cc(O)nc(SCc2ccccc2)n1 | inactive: > 100 µM |
| C=CCn1c(=S)sc2c(O)ncnc21 | inactive: > 100 µM |
| COc1nc(OC)nc(-c2cccc(F)c2)n1 | inactive: 19.3 µM |
| CCCCOC(=O)N[C@H]1CCc2cc(OC)c(OC)c(OC)c2-c2ccc(SC)c(=O)cc21 | active: < 0.01 µM |
| CCOC(=O)C(C(=S)Nc1ccccc1)c1nn2c(=O)cc(C)nc2s1 (centres undefined) | inactive: 21.6 µM |
| Cc1ccc(/C=N/Nc2cc(C)c3cccc(C)c3n2)s1 | inactive: 1.76 µM |
| CN(C)CC/C(=N\Nc1c(Cl)cccc1Cl)c1ccccc1 | inactive: > 10 µM |
| O=C1C(=O)N(c2cccc(C(F)(F)F)c2)C(=S)N1c1ccccc1 | inactive: 42.7 µM |
| C=C1CC(CNc2cc(Cl)nc(N)n2)C1 | inactive: > 100 µM |
| CC1(C)OC(=O)C(=C2CC(c3ccccc3)c3ccccc32)C(=O)O1 (centres undefined) | inactive: > 100 µM |
| O=C(Cc1ccc([N+](=O)[O-])cc1)OCC#CCOC(=O)Cc1ccc([N+](=O)[O-])cc1 | inactive: > 10 µM |
| CCC1(O)CN(CCOC)[C@H]2C[C@@H]1C(=O)c1[nH]c3ccccc3c12 (some centres undefined) | inactive: > 100 µM |
| O=C1c2c(c3c4ccccc4n(CC4CO4)c3c3[nH]c4ccccc4c23)C(=O)N1Cc1ccccc1 (centres undefined) | inactive: > 100 µM |

| Structure (SMILES) | GI50 |
| --- | --- |
| Cc1c(C(=O)O)n2c(S)nnc2c2ccccc12 | inactive: > 100 µM |
| COC(=O)[C@@H]1CN(C(=O)CCc2ccccc2)C(=O)N1 | inactive: > 100 µM |
| COC(=O)C1(c2cc3ccccc3n2S(=O)(=O)c2ccccc2)CC2C=CC1NC2 (centres undefined) | inactive: 2.98 µM |
| NCCN1C(=O)CN=C(c2ccc(Cl)cc2)c2cc(Cl)ccc21 | inactive: 18.1 µM |
| Nc1nc(Cl)c(CO)c(NCC2(CO)CCC2)n1 | inactive: > 100 µM |
| COC(=O)CCc1cc(OC)c2oc(-c3ccc(OC)c(OC)c3)c(CO)c2c1 | inactive: > 100 µM |
| Cc1cc(N(CCC#N)CCC#N)ccc1/N=N/c1ccc([N+](=O)[O-])cc1 | inactive: > 100 µM |
| CO/C(=N\N=C\c1ccc(Cl)cc1)c1ccncc1 | inactive: > 100 µM |
| COc1ccc2[nH]cc(/C=C(/C)c3ccncc3)c2c1 | inactive: 41.3 µM |
| NCCCNCCSSC/C=C\CSSCCNCCCN | inactive: 93.5 µM |
| CC(C)=CC(=O)C[C@H]1C(=O)O[C@@H]2C[C@H]3C(C)=CC(=O)[C@@H](O)[C@]3(C)[C@H]3[C@@]4(O)OC[C@]32[C@@H]1[C@@H](C)[C@H]4O | active: 0.406 µM |
| C/C(=N/NC(=S)N1CCCCCC1)c1cccc(/C(C)=N\NC(=S)N2CCCCCC2)n1 | inactive: 1.35 µM |
| COc1ccc(Nc2ccc3ccccc3c2-c2c(O)ccc3ccccc23)cc1 | inactive: 15.4 µM |
| COC(=O)c1cc2c(cc1CC1Cc3cc4c(cc3C1)CCC4)CCC2 | inactive: 67.1 µM |
| CC(C)C1=CC(=O)C(C)(C2C(O)CC3(C)C4CC=C5C(CCC(OC6OC(CO)C(O)C(O)C6OC6OC(C)C(O)C(O)C6O)C5(C)C)C4(C)C(=O)CC23C)O1 (centres undefined) | inactive: > 100 µM |
| CCOC(=O)C(C#N)C1=CC(=O)C(=O)c2ccc(O)cc21 (centres undefined) | inactive: > 100 µM |
| COc1ccc(OC2(c3cc(OC)ccc3OC)OC(=O)c3ccccc32)cc1 (centres undefined) | inactive: > 100 µM |
| COC(=O)c1oc([N+](=O)[O-])c(Cl)c1Cl | inactive: 13.2 µM |
| CC(C)N1CCCOC(c2ccc([N+](=O)[O-])cc2)O1 (centres undefined) | inactive: > 100 µM |
| Cc1ccc(Cc2n[nH]c(=O)n2N2C(=O)c3ccccc3C2=O)cc1 | inactive: > 100 µM |
| CC(=O)N1c2ccccc2C2=CC3C4C(=O)N(c5ccccc5)C(=O)C4C21C1C(=O)N(c2ccccc2)C(=O)C31 (centres undefined) | inactive: 34.2 µM |
| COc1ccc(-c2cc(-c3ccc(Nc4ccnc5cc(C(F)(F)F)ccc45)cc3)nc(N)c2C#N)c2ccccc12 | inactive: 86.9 µM |

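Protocol summary: plate cells (96-well), add compound at 5 concentrations, incubate 48 h, interpolate endpoints linearly. Here, GI50 denotes the concentration required for 50% inhibition of growth.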 Activity calls are given as the source filed them. No stated cut-off is given here; in the data, active = GI50 up to about 1.1 µM and inactive = higher.
